From the supplement of paper PMC10126150
Values marked as one replicate rest on one cluster of the flow cell; about a third of the high ones do not repeat.
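Note: ATP exposure 15 min at 22 °C before imaging.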

Each sequence was assayed on ATP (assay: switch fluorescence ratio, 500 uM ATP over buffer (Cy3 cluster intensity, sum of 5 cycles each) (fold (ratio)); higher = stronger signal-on switching upon ATP binding; sequences stand for … in TCGTCGGCAGCGTCAGATGTGTATAAGAGACAGTTTTTTTTTTTTTTTTTTTTTTTTT…TC). Conditions: aptamer strand: ATP DNA aptamer (quencher-CACCTGGGGGAGTATTGCGGAGGAAGG + anchor), 100 nM annealed; ATP concentration: 500 uM; one replicate.
Procedure, shortened: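 Cy3-labelled switching-strand clusters on a modified Illumina MiSeq flow-cell were annealed to 100 nM quencher-labelled ATP aptamer and imaged first in selection buffer, then after 15 min with 500 uM ATP at 22 °C. NaOH stripping and re-annealing separated each of five buffer/ATP cycles, and clusters outside 100-1000 RFU were excluded. The fluorescence ratio sums target-cycle Cy3 intensity over buffer-cycle Cy3 intensity per cluster and averages it per switch-domain sequence.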
For GAGAGTGTGG, the switch fluorescence ratio was 0.965.
Sequence CGGAAAGCCA has a switch fluorescence ratio of 1.
For CCATGCGTCA, the switch fluorescence ratio was 1.
Work on TCTATTCAA yielded a switch fluorescence ratio of 0.985.
For TAACTAGTTG, the switch fluorescence ratio was 1.01.
With TTCATTCA the switch fluorescence ratio was 1.05.
With CCAGTTGAAT the switch fluorescence ratio was 1.06.
GGAGACTGTT showed a switch fluorescence ratio of 1.06.
In the case of GCCATTACG, the switch fluorescence ratio is reported as 1.06.
For TGACCGGGCG, the switch fluorescence ratio was 0.956.
ACGATTTCC gave a switch fluorescence ratio of 1.14.
ATCATGGTTA was tested, and the switch fluorescence ratio was 1.03.
TTAGGTGTGT gave a switch fluorescence ratio of 1.06.
TTCACCGCCG showed a switch fluorescence ratio of 1.08.
Work on AGGCCATGTT yielded a switch fluorescence ratio of 1.
GCTTTATAAT was tested, and the switch fluorescence ratio was 0.975.
In the case of CTTGTGAGCC, the switch fluorescence ratio is reported as 1.05.
Sequence TTTTTCACC has a switch fluorescence ratio of 1.04.
With GATCTCGGTG the switch fluorescence ratio was 0.966.
TTATGAGCTC showed a switch fluorescence ratio of 0.98.
For TCTAAATTGT, the switch fluorescence ratio was 0.976.
With ATAGTTTACG the switch fluorescence ratio was 1.04.
Work on CCGTAAGTTG yielded a switch fluorescence ratio of 1.09.
For TACTTGGGTA, the switch fluorescence ratio was 0.99.
Work on CCAGTGATTG yielded a switch fluorescence ratio of 1.
For CACTATTGGG, the switch fluorescence ratio was 0.959.
Sequence ATCGATTACC has a switch fluorescence ratio of 1.03.
Sequence ACTCAGCCCA has a switch fluorescence ratio of 1.23.
Sequence ATTTACGTTG has a switch fluorescence ratio of 0.992.
Sequence GAACAGCTAC has a switch fluorescence ratio of 1.92.
With CAGCTAGTCG the switch fluorescence ratio was 1.01.
For TATCCAGGTA, the switch fluorescence ratio was 1.08.
Sequence TGGAAACTAC has a switch fluorescence ratio of 1.09.
ATCTGGGTAA gave a switch fluorescence ratio of 0.963.
In the case of CACGGCCATG, the switch fluorescence ratio is reported as 1.03.
CGGATAATGG was tested, and the switch fluorescence ratio was 0.963.
GACCTGGCCG showed a switch fluorescence ratio of 1.11.
Work on CACGCGGGAA yielded a switch fluorescence ratio of 1.
For ATATCTGCGT, the switch fluorescence ratio was 0.994.
AGGGACCCAA gave a switch fluorescence ratio of 0.997.
GAATTATTCT was tested, and the switch fluorescence ratio was 1.06.
GCATAAGGCG was tested, and the switch fluorescence ratio was 1.02.
TGACTGGTGG was tested, and the switch fluorescence ratio was 0.996.
AAATGTGTTG showed a switch fluorescence ratio of 1.03.
ATATCTTGTG was tested, and the switch fluorescence ratio was 0.986.
Sequence GCTAAAGTGA has a switch fluorescence ratio of 1.01.
CTTTTGCAGA was tested, and the switch fluorescence ratio was 1.05.
TAGTCTATGA gave a switch fluorescence ratio of 0.938.
Work on ATCTATCCAG yielded a switch fluorescence ratio of 0.979.
TTACTCCTAT was tested, and the switch fluorescence ratio was 1.08.
AGTCGGGCTG gave a switch fluorescence ratio of 1.01.
Work on GCTTATTTGC yielded a switch fluorescence ratio of 1.03.
TCGACGACAC showed a switch fluorescence ratio of 2.59.
With GACTCTCGTG the switch fluorescence ratio was 1.
For GGAAAAACCG, the switch fluorescence ratio was 1.02.
Work on AGATGACCCA yielded a switch fluorescence ratio of 0.993.
GTGGCGTTGC was tested, and the switch fluorescence ratio was 0.998.
CTCCACGAGG showed a switch fluorescence ratio of 2.51.
CAAATGGTAG showed a switch fluorescence ratio of 1.02.
TAACGGAGCG showed a switch fluorescence ratio of 1.53.
Work on GTTTTTGTTC yielded a switch fluorescence ratio of 0.958.
ATAGAGGAAA was tested, and the switch fluorescence ratio was 0.975.
For ATGAAGGCTC, the switch fluorescence ratio was 1.03.
ACAGTAACAC showed a switch fluorescence ratio of 1.1.
AACTACGCGG showed a switch fluorescence ratio of 1.29.
Work on GGAATACCCT yielded a switch fluorescence ratio of 1.14.
CCCTCCCTGA showed a switch fluorescence ratio of 1.37.
CCTTAAGAAC showed a switch fluorescence ratio of 1.23.
Sequence GGCTAGATCA has a switch fluorescence ratio of 0.994.
In the case of GCTCCATGGC, the switch fluorescence ratio is reported as 1.1.
In the case of AAATTCACGC, the switch fluorescence ratio is reported as 0.985.
In the case of GTTAACCGGC, the switch fluorescence ratio is reported as 1.
Work on CATTTTCATG yielded a switch fluorescence ratio of 0.98.
In the case of GCCTTAGACG, the switch fluorescence ratio is reported as 0.953.
GCACGTGCCG was tested, and the switch fluorescence ratio was 0.928.
TTGTTTCG showed a switch fluorescence ratio of 0.957.
For GATTCGAACC, the switch fluorescence ratio was 1.01.
CTTTTCAGTC gave a switch fluorescence ratio of 1.04.
GTGTAGGCCT gave a switch fluorescence ratio of 0.991.
Work on ACGCTTTTGC yielded a switch fluorescence ratio of 1.07.
In the case of AGTGTCCCCT, the switch fluorescence ratio is reported as 1.02.
AATTTCGACC showed a switch fluorescence ratio of 1.05.
ACAGTTCACT showed a switch fluorescence ratio of 1.04.
In the case of CCTAGCCGGC, the switch fluorescence ratio is reported as 1.11.
In the case of ATACCCGAGA, the switch fluorescence ratio is reported as 1.05.
CCTCGAGCCT was tested, and the switch fluorescence ratio was 1.87.
Sequence CCAGCCGTGT has a switch fluorescence ratio of 1.08.
ATAAGGCAGT showed a switch fluorescence ratio of 1.
TTAACTACTG gave a switch fluorescence ratio of 0.922.
For AAGCTATTAT, the switch fluorescence ratio was 1.02.
CTGACTCGAT gave a switch fluorescence ratio of 1.69.
For ATGTAGCCGC, the switch fluorescence ratio was 1.
Sequence TTGGTCCGAT has a switch fluorescence ratio of 0.996.
Work on CATATCAGTT yielded a switch fluorescence ratio of 0.999.
Work on TTAGGATTTG yielded a switch fluorescence ratio of 1.02.
Sequence GCGGTACCGA has a switch fluorescence ratio of 1.04.
GGTTTAGTCC showed a switch fluorescence ratio of 1.02.
In the case of GGTTAGATTT, the switch fluorescence ratio is reported as 0.974.
Work on GGTCCATTGA yielded a switch fluorescence ratio of 1.03.
Work on CTAGCGTTTG yielded a switch fluorescence ratio of 1.01.
AACCATCAGG showed a switch fluorescence ratio of 1.03.
AAAAACCTTG was tested, and the switch fluorescence ratio was 1.05.
Sequence CCACGTGTCT has a switch fluorescence ratio of 0.985.
Work on GTGGAGCGCT yielded a switch fluorescence ratio of 1.01.
TGATGTCCCC was tested, and the switch fluorescence ratio was 0.985.
TCTAACATGA showed a switch fluorescence ratio of 1.
TGACGTCTTT showed a switch fluorescence ratio of 0.996.
GGCGGGATTC was tested, and the switch fluorescence ratio was 0.982.
With GATAGGTGCG the switch fluorescence ratio was 1.03.
In the case of ATTCCTCGTA, the switch fluorescence ratio is reported as 1.11.
GGGTGTGCAG gave a switch fluorescence ratio of 1.04.
Work on AAGTTACCCT yielded a switch fluorescence ratio of 1.12.
Sequence TTTGCTGACA has a switch fluorescence ratio of 0.991.
In the case of TTCCGCCGTC, the switch fluorescence ratio is reported as 1.06.
In the case of CGAAGGCCTA, the switch fluorescence ratio is reported as 1.
ATTTACAGCA gave a switch fluorescence ratio of 1.04.
Sequence GGGAGTACAT has a switch fluorescence ratio of 0.957.
For TCACTAGGAG, the switch fluorescence ratio was 1.06.
For TCTCGTTGAC, the switch fluorescence ratio was 3.3.
With ATTGCCTGGT the switch fluorescence ratio was 0.975.
GGAGCGCGAG showed a switch fluorescence ratio of 1.06.
For TCCAAGCCTA, the switch fluorescence ratio was 1.
AGCATGGAA was tested, and the switch fluorescence ratio was 1.01.
Sequence CGGCATCCTA has a switch fluorescence ratio of 1.02.
Sequence CCGCGGGAGC has a switch fluorescence ratio of 1.21.
In the case of CCAATTGTTG, the switch fluorescence ratio is reported as 0.959.
Sequence GCTGTCAATG has a switch fluorescence ratio of 0.99.
Sequence ATGCATCATT has a switch fluorescence ratio of 0.995.
Sequence TAACGGATTA has a switch fluorescence ratio of 1.02.
GTTCCTTCTC gave a switch fluorescence ratio of 1.39.
GTGGTAAGC was tested, and the switch fluorescence ratio was 1.01.
TCTTTAATG gave a switch fluorescence ratio of 1.03.
Work on TAATGTTCGC yielded a switch fluorescence ratio of 0.921.
ACTGTATAC showed a switch fluorescence ratio of 2.
In the case of AAGGGTAGGT, the switch fluorescence ratio is reported as 1.03.
AGTTAATCAG gave a switch fluorescence ratio of 0.998.
For CGGCTGCACG, the switch fluorescence ratio was 0.995.
Sequence AGACTTGGGC has a switch fluorescence ratio of 0.943.
ATCGTCCAAT showed a switch fluorescence ratio of 1.02.
Work on ACGGTCCGAG yielded a switch fluorescence ratio of 1.04.
Work on AAACAATATC yielded a switch fluorescence ratio of 1.12.
With GAATGCGGAG the switch fluorescence ratio was 1.
Work on AGAAAGAACA yielded a switch fluorescence ratio of 1.04.
GAACTAATTT showed a switch fluorescence ratio of 0.983.
GCGACGCTCC showed a switch fluorescence ratio of 2.24.
Sequence ATTTTGTCAG has a switch fluorescence ratio of 1.01.
ACGTGGGATT showed a switch fluorescence ratio of 0.996.
ACATTAGAAT showed a switch fluorescence ratio of 0.979.
With TGGCGGTACT the switch fluorescence ratio was 0.997.
For TACATGTACC, the switch fluorescence ratio was 1.2.
With TTAGTGTCGC the switch fluorescence ratio was 1.03.
CAAAAATTTC gave a switch fluorescence ratio of 1.01.
With GTGATCTGTA the switch fluorescence ratio was 1.03.
TGAGATGATT showed a switch fluorescence ratio of 1.03.
With TCCGCCGCTG the switch fluorescence ratio was 2.31.
Work on ACTTGCGAAT yielded a switch fluorescence ratio of 1.01.
GGTACATACT was tested, and the switch fluorescence ratio was 1.25.
With TTCACCGCCC the switch fluorescence ratio was 1.86.
Sequence GCACGCTTGC has a switch fluorescence ratio of 1.1.
Sequence CTGTCTAGGT has a switch fluorescence ratio of 0.974.
CGCCTTTATG was tested, and the switch fluorescence ratio was 0.958.
GCTTAAAGAT was tested, and the switch fluorescence ratio was 1.13.
In the case of TGGAGCCCGT, the switch fluorescence ratio is reported as 1.01.
Sequence TTTTCCTCGG has a switch fluorescence ratio of 1.16.
Sequence TGTAACGCAT has a switch fluorescence ratio of 1.16.
GATACACAGG was tested, and the switch fluorescence ratio was 1.28.
CCAGTGAATT gave a switch fluorescence ratio of 1.01.
CTGTGGAAAT gave a switch fluorescence ratio of 1.02.
For CTAAATTAAG, the switch fluorescence ratio was 0.994.
With TCCAAGTTTT the switch fluorescence ratio was 1.01.
TACATTCCTG was tested, and the switch fluorescence ratio was 1.02.
TAGAGTTTTG showed a switch fluorescence ratio of 0.985.
TAGTCTTAT showed a switch fluorescence ratio of 0.995.
GCCTGCCGAC gave a switch fluorescence ratio of 1.82.
Sequence CGGGGAGAG has a switch fluorescence ratio of 0.985.
For ATACTCTATC, the switch fluorescence ratio was 1.05.
For AGAATGGACT, the switch fluorescence ratio was 0.996.
AAGCCCTCGA showed a switch fluorescence ratio of 0.96.
CCATACTCCA was tested, and the switch fluorescence ratio was 1.48.
In the case of CGAAAAATGT, the switch fluorescence ratio is reported as 1.03.
With ATTTGCCCGC the switch fluorescence ratio was 1.13.
CATAGTTTCT gave a switch fluorescence ratio of 1.02.
With CCACCCGAAG the switch fluorescence ratio was 1.33.
TACCTGCCTT was tested, and the switch fluorescence ratio was 1.24.
TTTGAGCCCT showed a switch fluorescence ratio of 0.996.
Work on TCACAGTCAA yielded a switch fluorescence ratio of 1.06.
GGCCCAAAAT showed a switch fluorescence ratio of 1.01.
In the case of GAAGGGTCGC, the switch fluorescence ratio is reported as 1.
Work on CGATCGTATT yielded a switch fluorescence ratio of 1.09.
ACGAATCAAA gave a switch fluorescence ratio of 1.03.
With CCCTAACATC the switch fluorescence ratio was 1.05.
In the case of GACAAGATGT, the switch fluorescence ratio is reported as 0.964.
CCAGGTATTA gave a switch fluorescence ratio of 1.05.
GTCGAATGGC showed a switch fluorescence ratio of 1.02.
In the case of GGGACGGGAA, the switch fluorescence ratio is reported as 1.35.
TGCCGGGGTG was tested, and the switch fluorescence ratio was 1.02.
For TAGGCTTGAG, the switch fluorescence ratio was 0.966.
Sequence TTCACCCGAG has a switch fluorescence ratio of 1.18.
GTAAGTACCG was tested, and the switch fluorescence ratio was 1.11.
For GCAAAG, the switch fluorescence ratio was 1.02.
